Assay results published in article PMC6316070 (Marine Drugs, 2018).
Values after ≈ are worked out from the molar mass of the structure shown. Where two headings read alike, the source gives them in different places. Marks after values point to notes of the source that are not given here. Starred links: 1 amine or outer side, 2 acyl side, 3 side chain; linkers in the order of their positions; H or OH if unused. Non-standard residues stand in square brackets, D forms with d. Residues, ends and D or L forms follow the SMILES beside them. Pentanoyl(2-O,4-OH,5-Cl) = O=C(O)C(O)CC(O)CCl; X3 = C[C@H]1CCN([*:1])[C@@H]1C(=O)[*:2]; X2 = O=C([C@@H](CC(O)CCl)O[*:1])[*:2]; dLac(3-vinyl) = C=CC[C@@H](O)C(=O)O; NMeI = CC[CH](C)[CH](NC)C(=O)O; X1 = CC1CCN([*:1])C1C(=O)[*:2]; dHica = CC(C)C[C@@H](O)C(=O)O; NMeV = CN[C@H](C(=O)O)C(C)C; NMeA = CN[CH](C)C(=O)O; βAla = NCCC(=O)O

Assays:
[1] = tested on: Heterodera avenae; assay: whole plant or invertebrate; conditions: 48 h, read-out: Nematicidal activity (LC50)
[2] = tested on: Valsa mali; assay: microbe, parasite or virus in culture; conditions: Cytospora mali
[3] = tested on: Rhizoctonia cerealis; assay: microbe, parasite or virus in culture; conditions: Ceratobasidium cereale
[4] = tested on: Heterodera avenae; conditions: in vivo
[5] = read-out: Antifungal activity MIC, V. mali
[6] = read-out: Antifungal activity MIC, R. cerealis
[7] = read-out: Antifungal activity MIC, V. mali, broth microdilution
[8] = read-out: Antifungal activity MIC, R. cerealis, broth microdilution

Q: Which LC50 [1] does the source give for `CC(=CCCC(C)(O)C1CCC(C)(O)C1C)C(=O)O` (stereo not drawn) [Compound 10, ascotrichic acid] here?
A: The LC50 was > 500 µg/mL.

Q: Which MIC [2, 5] does the source give for `CC(C)(C)C(O)(CCc1ccc(Cl)cc1)Cn1cncn1` (stereo not drawn) [Tebuconazole, tebuconazole, reference compound] here?
A: Its MIC is 16 µg/mL (≈ 52 µM).

Q: What about the MIC [3, 6] of the same compound?
A: The MIC was 8 µg/mL (≈ 26 µM).

Q: `C=CC[C@H]1OC(=O)CCNC(=O)[C@H](C)N(C)C(=O)[C@H](C(C)C)N(C)C(=O)[C@H]([C@@H](C)CC)NC(=O)[C@@H]2[C@@H](C)CCN2C1=O` [Compound 6, roseotoxin B] (cyclo(I[NMeV][NMeA][βAla][dLac(3-vinyl)][X3])) was tested. Which LC50 [1] did it give?
A: The LC50 was 293 µg/mL (≈ 496 µM).

Q: With `CC[C@H](C)[C@@H]1NC(=O)[C@@H]2[C@@H](C)CCN2C(=O)[C@@H](C[C@@H](C)CO)OC(=O)CCNC(=O)[C@H](C)N(C)C(=O)[C@H]([C@@H](C)CC)N(C)C1=O` [Compound 3, trichomide A] as the compound, how does the LC50 [1] read?
A: The LC50 was > 500 µg/mL.

Q: How did the LC50 [1] turn out when `C=CC[C@H]1OC(=O)CCNC(=O)[C@H](C)N(C)C(=O)[C@H]([C@@H](C)CC)N(C)C(=O)[C@H]([C@@H](C)CC)NC(=O)[C@@H]2[C@@H](C)CCN2C1=O` [Compound 2, destruxin A5] (cyclo(I[NMeI][NMeA][βAla][dLac(3-vinyl)][X3])) was run?
A: Its LC50 is 144 µg/mL (≈ 237 µM).

Q: How did the MIC [2, 5] turn out when `CC(=O)OCC(C)=CCCC(C)(O)C1CCC(C)(O)C1C` (stereo not drawn) [Compound 8, Cyclonerodiol C] was run?
A: Its MIC is 128 µg/mL (≈ 429 µM).

Q: What about the LC50 [1] of the same compound?
A: The LC50 was > 500 µg/mL.

Q: And the MIC [3, 6]?
A: Its MIC is 128 µg/mL (≈ 429 µM).

Q: For `CC[C@H](C)[C@@H]1NC(=O)[C@@H]2[C@@H](C)CCN2C(=O)[C@@H](CC(C)CO)OC(=O)CCNC(=O)[C@H](C)N(C)C(=O)[C@H](C(C)C)N(C)C1=O` (stereo partly drawn) [Compound 7, roseotoxin C], which LC50 [1] is on record?
A: Its LC50 is > 500 µg/mL.

Q: For `CC[C@H](C)[C@@H]1NC(=O)[C@@H]2CCCN2C(=O)[C@@H](CC(O)CCl)OC(=O)CCNC(=O)[C@H](C)N(C)C(=O)[C@H](C(C)C)N(C)C1=O` (stereo partly drawn) [Compound 5, destruxin chlorohydrin] (cyclo(I[NMeV][NMeA][βAla][X2]P)), which LC50 [1] is on record?
A: The LC50 was 208 µg/mL (≈ 330 µM).

Q: With `CCC(C)C1NC(=O)C2C(C)CCN2C(=O)C(CC(O)CCl)OC(=O)CCNC(=O)C(C)N(C)C(=O)C(C(C)CC)N(C)C1=O` (stereo not drawn) [Compound 1, Trichomide D] (cyclo([X1]I[NMeI][NMeA][βAla][Pentanoyl(2-O,4-OH,5-Cl)]); configuration not given here) as the compound, how does the MIC [2, 7] read?
A: The MIC was 256 µg/mL (≈ 389 µM).

Q: And the LC50 [1]?
A: The LC50 was 94.9 µg/mL (≈ 144 µM).

Q: And the MIC [3, 8]?
A: The MIC was 128 µg/mL (≈ 194 µM).

Q: Which MIC [2, 7] does the source give for `CC[C@H](C)[C@@H]1NC(=O)[C@@H]2CCCN2C(=O)[C@@H](CC(C)C)OC(=O)CCNC(=O)[C@H](C)N(C)C(=O)[C@H]([C@@H](C)CC)N(C)C1=O` [Compound 4, homodestruxin B] (cyclo(I[NMeI][NMeA][βAla][dHica]P)) here?
A: The MIC was 128 µg/mL (≈ 211 µM).

Q: What about the LC50 [1] of the same compound?
A: Its LC50 is 222 µg/mL (≈ 365 µM).

Q: What about the MIC [3, 8] of the same compound?
A: Its MIC is 256 µg/mL (≈ 421 µM).

Q: abamectin was tested. Which “Nematicidal activity (LC50)” value [4] did it give?
A: The value was 23.1 ^b μg/mL.

Q: For `CC1C(C(C)(O)CC=CC(C)(C)O)CCC1(C)O` (stereo not drawn) [Compound 9, Cyclonerodiol D], which MIC [2, 5] is on record?
A: Its MIC is 64 µg/mL (≈ 250 µM).

Q: What about the LC50 [1] of the same compound?
A: Its LC50 is > 500 µg/mL.

Q: And the MIC [3, 6]?
A: The MIC was 128 µg/mL (≈ 499 µM).
